# According to PubChem BioAssay AID924 (National Center for Advancing Translational Sciences (NCATS), 2007):
# Where “and” joins values, the source holds several entries; their conditions need not be identical. Identical values can stand only once. The campaign covered roughly 130,000 compounds. About 1,200 (0.92%) were called active. Inconclusive means that the source gave no clear call. Such entries were picked first, then a sample of the others. Calls follow the shape of the dose curve; as a rule, active = well fitted cell-killing curve with a large enough effect; inconclusive = small, poorly fitted or top-dose-only effect; inactive = no such curve, though single readings can be large or run the other way. Potencies beside an inconclusive call are fits to weak or partial responses and may not hold up.
# Experiment: qHTS Screen for Compounds that Selectively Target Cancer Cells with p53 Mutations: Cytotoxicity of p53ts Cells at the Permissive Temperature; also: nearly all actives have a fitted effect of over 55% in size;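 as to activity change, negative = cytotoxicity: 0% = DMSO and -100% = full killing by reference compound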
# Conditions: H1299-p53A138V at 32C, ATP luminescence viability, 24 h; series mostly up to 46.1 µM
# Summary of the method: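 ATP-content luminescence (ATPlite) read-out after 24 h compound exposure at 32C in H1299-p53A138V cells (600/well). Tested up to 46 uM. Normalized to DMSO (0%) and 100 uM tamoxifen (100% killing); Hill-fit AC50.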
# Potency is read from the fitted curve at half-maximal effect; tags tell the direction and shape of the fitted curve.
Structure (SMILES),"activity change, negative = cytotoxicity",Potency
O=C1C2CC=CCC2C(=O)N1SC(Cl)(Cl)Cl (stereo not drawn),inactive: 3.35% [at 1.84 µM] and inactive: -9.63% [at 1.84 µM],–
O=C(O)c1cc(O)c(O)c(O)c1,–,active: 12.6 µM
CCCCCCCCCOc1ccc2[nH]cc(CCN)c2c1,–,"inconclusive: 31.6 µM [cytotoxic, single point]"
CCOC(=O)c1c(N)n(Cc2ccco2)c2nc3ccccc3nc12,–,inactive
Cc1nc(-c2ccc(-c3ccc(C(=O)N4CCc5cc6c(cc54)C4(CCN(C)CC4)CO6)cc3)c(C)c2)no1,–,active: 15.8 µM
COc1ccc(C2SCC(=O)Nc3c2c(=O)[nH]n3C2CCCCCC2)cc1OC (stereo not drawn),–,inactive
CC[C@]1(OC(=O)CN)C(=O)OCc2c1cc1n(c2=O)Cc2cc3ccccc3nc2-1,inactive: -4.48% [at 9.22 µM],–
NC(=O)CI,–,active: 6.31 µM
CCOC(=O)c1ccc(N2C(=O)c3n[nH]c(-c4cccs4)c3C2c2ccc(C(C)(C)C)cc2)cc1 (stereo not drawn),–,"inconclusive: 31.6 µM [cytotoxic, single point]"
Cn1cnc2cc(NC(=O)c3ccc(Cl)cc3)ccc21,–,"inconclusive: 12.6 µM [cytotoxic, partial curve]"
Oc1cc2c(cc1O)[C@H]1c3ccccc3CN[C@H]1CC2,–,"inconclusive: 31.6 µM [cytotoxic, single point]"
COc1cc2ccccc2c2cc([N+](=O)[O-])oc12,–,"inconclusive: 3.98 µM [cytotoxic, partial curve]"
Fc1ccc(C(OCCN2CCN(C/C=C\c3ccccc3)CC2)c2ccc(F)cc2)cc1,–,"inconclusive: 31.6 µM [cytotoxic, single point]"
O[N+]1=CC=CCC1=S.On1ccccc1=S.[Zn],–,active: 0.794 µM
CN1CC[C@@]2(c3cccc(O)c3)Cc3nc4ccccc4cc3C[C@H]2C1,–,inactive
O=C(CN1CCCC1=O)N1CCOCC1,–,inactive
Nc1ccccc1N=Cc1c(O)n(CCC2=CCCCC2)c(=O)[nH]c1=O,–,"inconclusive: 20 µM [cytotoxic, single point]"
Nc1cc(Cl)c2nonc2c1[N+](=O)[O-],–,"inconclusive: 15.8 µM [cytotoxic, single point]"
O=C1Nc2ccccc2C2(CCN(CCc3ccc(C(F)(F)F)cc3)CC2)O1,–,"inconclusive: 31.6 µM [cytotoxic, single point]"

Structure (SMILES),"activity change, negative = cytotoxicity",Potency
CC(=O)c1cccc(NC(=O)c2cc3c(s2)-c2c(C)cccc2OC3)c1,–,active: 10 µM
CNc1ccc2oc(C[C@H]3O[C@]4(CC[C@H]3C)O[C@H]([C@H](C)C(=O)c3ccc[nH]3)[C@H](C)C[C@H]4C)nc2c1C(=O)O,–,active: 3.98 µM
CC(C)=CCCC1(C)C=Cc2c(O)c3c(c(CC=C(C)C)c2O1)OC12C(=CC4CC1C(C)(C)OC2(C/C=C(/C)C(=O)O)C4=O)C3=O (stereo not drawn),–,active: 3.98 µM
CC[C@@H](CO)Nc1nc(NCc2ccccc2)c2ncn(C(C)C)c2n1,–,inactive
O=C(CN1CCCC1)Nc1ccc(NC(=O)Nc2ccccc2)cc1,–,"inconclusive: 12.6 µM [cytotoxic, partial curve]"
C[C@@]12CC[C@H]3[C@@H](CC[C@H]4C[C@@H](O)CC[C@]43C)[C@H]1CC[C@@H]2C(=O)C[C@H](O)C(F)(F)F,inactive: -1.91% [at 9.22 µM],–
CCOc1ccc(Br)c(C2(O)CC(C)N(C)CC2C)c1 (stereo not drawn),–,"inconclusive: 15.8 µM [cytotoxic, partial curve]"
CCOc1ccc(NC(=O)CSc2oc(-c3ccccc3)nc2S(=O)(=O)c2ccc(Cl)cc2)cc1,–,"inconclusive: 10 µM [cytotoxic, partial curve]"
O=C(Oc1ccc2ccccc2c1Cl)N1CCCC1,–,"inconclusive: 12.6 µM [cytotoxic, partial curve]"
CNC(C(=O)c1ccccc1)C(OC)c1ccccc1 (stereo not drawn),–,inactive
CCCCCCCCCCCCCC(=O)O[C@H]1[C@@H](C)[C@@]2(O)[C@@H](C=C(CO)C[C@]3(O)C(=O)C(C)=C[C@@H]23)C2C(C)(C)[C@]21OC(C)=O (stereo partly drawn),–,"inconclusive: 25.1 µM [cytotoxic, single point]"
Ic1ccccc1CN[C@@H]1C2CCN(CC2)[C@H]1C(c1ccccc1)c1ccccc1,–,"inconclusive: 12.6 µM [cytotoxic, partial curve]"
COc1ccc(NC(=O)Nc2cccc3cccnc23)cc1,–,active: 12.6 µM
Cc1ccc(C(=O)COC(=O)c2cccc(NC(=O)c3ccc(Br)cc3)c2)cc1,–,"inconclusive: 12.6 µM [cytotoxic, partial curve]"
CNc1ccccc1C(=O)O,–,inactive
CCCCCCn1c(O)c(C=NC2CCCCC2N)c(=O)[nH]c1=O (stereo not drawn),–,active: 3.98 µM
C[C@@]12CC[C@H]3[C@H](CCC4=CC(=O)CC[C@H]43)[C@H]1CC[C@H]2OC1(O)C(=O)c2ccccc2C1=O,inactive: 3.95% [at 9.22 µM],–
Cc1nc2c(-c3ccccc3)c(C)nn2c(C)c1CCC(=O)N1CCC2(CC1)OCCO2,–,"inconclusive: 1.41 µM [cytotoxic, full curve, poor fit]"
CCC(=NCc1ccco1)c1c(O)n(C2CCCCC2)c(=O)[nH]c1=O,–,inactive
